Assay results reported in PMC4336329 (PLoS ONE, 2015).
Screen size: about 310,000 compounds; about 2,200 (0.71%) showed an effect of 50% or more. Effects have a minus sign here. The list shows a part of the results.

Molecular target: human ether-à-go-go-related gene (hERG) potassium channel (human, UniProt Q12809)
Assay: primary screen, population patch clamp on CHO cells stably expressing hERG

human ether-à-go-go-related gene (hERG) potassium channel, sequence (Q12809 whole entry, looked up): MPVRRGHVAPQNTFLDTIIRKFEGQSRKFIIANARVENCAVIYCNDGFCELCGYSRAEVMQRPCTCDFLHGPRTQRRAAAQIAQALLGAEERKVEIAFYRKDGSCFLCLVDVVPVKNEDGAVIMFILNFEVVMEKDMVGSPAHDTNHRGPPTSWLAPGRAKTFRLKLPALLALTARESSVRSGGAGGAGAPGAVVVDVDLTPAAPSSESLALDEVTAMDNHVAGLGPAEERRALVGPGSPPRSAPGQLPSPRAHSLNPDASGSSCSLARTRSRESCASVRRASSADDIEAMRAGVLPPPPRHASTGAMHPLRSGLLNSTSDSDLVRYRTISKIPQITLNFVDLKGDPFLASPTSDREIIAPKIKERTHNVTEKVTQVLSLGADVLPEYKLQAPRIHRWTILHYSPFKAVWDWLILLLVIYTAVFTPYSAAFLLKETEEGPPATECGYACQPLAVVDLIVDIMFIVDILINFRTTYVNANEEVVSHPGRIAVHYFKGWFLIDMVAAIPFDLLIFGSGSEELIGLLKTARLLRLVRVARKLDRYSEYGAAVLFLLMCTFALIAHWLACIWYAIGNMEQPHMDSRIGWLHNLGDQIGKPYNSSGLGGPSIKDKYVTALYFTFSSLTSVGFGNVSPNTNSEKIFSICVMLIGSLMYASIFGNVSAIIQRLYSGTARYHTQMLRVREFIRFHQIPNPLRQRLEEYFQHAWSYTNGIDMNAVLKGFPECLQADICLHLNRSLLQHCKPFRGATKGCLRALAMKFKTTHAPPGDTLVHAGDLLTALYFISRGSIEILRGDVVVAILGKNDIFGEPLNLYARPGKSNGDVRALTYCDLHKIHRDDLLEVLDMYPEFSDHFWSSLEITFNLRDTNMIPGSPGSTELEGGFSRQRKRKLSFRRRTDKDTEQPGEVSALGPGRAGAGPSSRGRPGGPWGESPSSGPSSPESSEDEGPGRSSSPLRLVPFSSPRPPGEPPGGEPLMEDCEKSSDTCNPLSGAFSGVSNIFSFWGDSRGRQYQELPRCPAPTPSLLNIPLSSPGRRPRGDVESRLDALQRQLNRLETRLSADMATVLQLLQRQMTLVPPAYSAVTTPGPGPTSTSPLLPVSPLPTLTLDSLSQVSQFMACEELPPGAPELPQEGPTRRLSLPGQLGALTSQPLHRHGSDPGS

Row | SMILES | hERG current change (%, negative = inhibition) at 1uM
1 | CCCCN(C(=O)c1ccc(N2CCCC2=O)cc1)c1c(N)n(CC(C)C)c(=O)[nH]c1=O | 0.354%
2 | COc1ccc(OC)c(S(=O)(=O)NCCS(=O)(=O)N2CCN(c3ccccc3)CC2)c1 | 13.3%
3 | CCOc1nc(-c2ccc(Cl)cc2Cl)ccc1C#N | -3.96%
4 | O=C(CN1C(=O)/C(=C/c2cccc(Br)c2)SC1=S)NC1=NCCS1 | 15.1%
5 | Cc1cccc(NC(=O)CSc2ccc(-c3cccs3)nn2)c1C | 0.51%
6 | CCOc1cc(-c2sc(Nc3ccc(CC)cc3)n[n+]2-c2ccccc2)ccc1OC.[Cl-] | -30.9%
7 | Cn1ncc(C(=O)Nc2ccc(Cl)cc2)c1C(F)(F)F | 7.94%
8 | CCC(=O)N=c1n(C)c2ccccc2n1CCOc1ccccc1 | 6.96%
9 | CC12CCC(=O)N1C(C(=O)Nc1ccccc1N1CCCCC1)CS2 (centres unmarked) | 5.87%
10 | CCOC(=O)CNc1nc(Cl)c(C#N)s1 | 5.12%
11 | COc1ccc(S(=O)(=O)N2CCC(C(=O)N[C@@H](C)C(=O)NCc3ccncc3)CC2)cc1 | 16.4%
12 | Nc1cc(-c2ccc(Br)cc2)[nH]n1 | 8.69%
13 | COc1ccccc1C(=O)Nc1cccc2nc(C)ccc12 | 15.3%
14 | c1ccc(Sc2ncnc3ccccc23)cc1 | 9.63%
15 | O=C(/C=C/c1ccccc1)c1ccccc1O | 8.85%
16 | Cc1ccccc1Nc1nc(N)nc(CSc2nnnn2-c2ccccc2)n1 | 7.2%
17 | N#Cc1ccc(Oc2ccc(-c3cnc4ccccc4n3)cc2)cc1C#N | 10.8%
18 | Cc1cc(C)n2c(SCC(=O)Nc3ccccc3C#N)nnc2n1 | 9.36%
19 | C=CCn1c(SCC(=O)O)nnc1-c1cccc(Cl)c1 | 6.86%
20 | COC(=O)C1CN(S(=O)(=O)c2ccc(C)cc2)CCN1S(=O)(=O)c1ccc(C)cc1 (centres unmarked) | 13.5%
21 | O=C(CNC(=O)c1cncc(Br)c1)Nc1ccc(F)c(F)c1F | 8.16%
22 | NC1=NC[C@H](Cc2ccccc2)N1CCCCC1CCCCC1 | 6.23%
23 | O=C(CCS(=O)(=O)Cc1ccccc1)NCc1ccco1 | 11.1%

Row | SMILES | hERG current change (%, negative = inhibition) at 1uM
24 | COc1ccc(C(=O)c2cn[nH]c2-c2ccc(C)cc2O)cc1 | 13.5%
25 | Cc1ccc(NC(=O)[C@H](C)NC(=O)C2CCN(C(=O)[C@@H](NC(=O)OC(C)(C)C)C(C)C)CC2)cc1 | 10.4%
26 | [O-][n+]1onc2c1CCc1c-2nn(-c2ccccc2Cl)[n+]1[O-] | 1.46%
27 | O=C(CN1C(=O)C(=O)N(Cc2ccccc2)C1=O)c1ccc[nH]1 | 5.32%
28 | COc1ccc(C2N(C(=O)c3ccccc3)CCN2C(=O)c2ccccc2)cc1 | -0.273%
29 | CCOc1cc(S(=O)(=O)N2CCCCCC2)ccc1F | -10.4%
30 | O=C(CCCn1c(=O)c2sccc2n(Cc2cc(=O)n3ccccc3n2)c1=O)NCc1ccco1 | 17.3%
31 | CCOC(=O)Cn1c(=NC(=O)c2sc3ccccc3c2Cl)sc2cc(S(N)(=O)=O)ccc21 | 10.9%
32 | O=C(c1ccc(COc2ccc3ccccc3c2)o1)N1N=C(C(F)F)CC1(O)C(F)F (centres unmarked) | 1.39%
33 | Cn1c(CNC(=O)c2ccc(F)cc2)cc2ccccc21 | 14.5%
34 | CCC(C)NC(=O)C1CCN(S(=O)(=O)N2CCOCC2)CC1 (centres unmarked) | 16.6%
35 | CCCCNC(=O)c1ccc2c(=O)n(CCCOCC)c(=S)[nH]c2c1 | -6.49%
36 | CN1N=C(c2ccc(Cl)cc2)CC(c2ccc(Cl)cc2)C1=O (centres unmarked) | 7.55%
37 | COC(=O)[C@@H](NC(=O)N1CCC(Cc2ccccc2)CC1)C(C)C | 13.8%
38 | CCCCn1nc(C(=O)OCC(=O)Nc2sccc2C(N)=O)c2ccccc2c1=O | 9.45%
39 | Cc1ccc(C(=O)NC2CC3CCC(C2)N3Cc2ccco2)cc1 (centres unmarked) | -7.72%
40 | COc1ccc(-c2cn(Cc3ccc(C(N)=O)cc3)c(-c3ccncc3)n2)cc1 | 0.402%
41 | CC(=O)N(c1ccc2oc(=O)sc2c1)S(=O)(=O)c1ccc(C(=O)O)cc1 | 13.7%
42 | NC(=O)c1ccc(NC(=O)COC(=O)c2ccc(Br)o2)cc1 | 1.35%
43 | O=C(OCC(=O)N1CCCCCC1)c1ccc(S(=O)(=O)N2CCOCC2)cc1 | 13.3%
44 | Cc1ccc(NC(=O)Nc2ccccc2C(N)=O)cc1 | 15.6%
45 | Cc1cccc(OCC(=O)NCC(=O)N/N=C/c2cc(Br)ccc2OCc2ccccc2)c1 | 7.06%
46 | Cc1nn(CC(=O)O)c(C)c1NC(=O)c1cccs1 | 21.2%

Row | SMILES | hERG current change (%, negative = inhibition) at 1uM
47 | COc1ccc(C(=O)N2CCCC(Nc3ccc(C)c(C)c3)C2)c(OC)n1 (centres unmarked) | 6.96%
48 | CC(C)c1ccc(NC(=S)Nc2ccc3[nH]c(=O)[nH]c3c2)cc1 | 13.3%
49 | COC(=O)Cc1ccc(NC(=S)N2CCN(C(=O)C3CCCO3)CC2)cc1 (centres unmarked) | 5.7%
50 | O=C(NCCN1CCOCC1)c1ccc(Cl)c(S(=O)(=O)N2CCCCC2)c1 | 10.8%
51 | CCC1(O)c2ccccc2-c2ncccc21 (centres unmarked) | 10.6%
52 | COc1ccccc1-c1noc(CCC(=O)NC2CCCCC2)n1 | 14.6%
53 | O=C1Nc2ccc(S(=O)(=O)N3CCCCCC3)c3cccc1c23 | 15.3%
54 | COc1cccc(-c2cc(C(=O)N3CCN(Cc4ccccc4)CC3)no2)c1 | -4.98%
55 | Cc1ccc(N(CN2CCCC2=O)C(=O)c2ccc(C)c(C)c2)cc1 | 12.4%
56 | O=C(NCC(c1ccco1)N1CCCC1)c1ccc(S(=O)(=O)Nc2ccccc2F)cc1 (centres unmarked) | 4.3%
57 | CN(C)/C=C/C1=CC(=O)CC(C)(C)C1 | 17%
58 | CC1CCN(C(=O)CCC(=O)N2CC(C)Oc3ccccc32)CC1 (centres unmarked) | -0.862%
59 | COc1ccccc1NS(=O)(=O)c1ccc(C)c(C(=O)NCC2CCCO2)c1 (centres unmarked) | -14.5%
60 | Cc1ccc2nc(NC(=O)C3CCN(S(=O)(=O)c4cccs4)CC3)sc2c1 | 5.47%
61 | O=C(Nc1ccc2oc(-c3cccnc3)nc2c1)c1cccnc1 | 12.3%
62 | COCCNC(=O)C1CCC(CNS(=O)(=O)c2ccc3c(c2)CC(C)N3C(=O)C2CC2)CC1 (centres unmarked) | -9.28%
63 | CC(=O)Oc1ccc(N(C(C)=O)S(=O)(=O)c2cc([N+](=O)[O-])ccc2C)cc1 | 9.39%
64 | CCOc1ccc(C(=O)NNC(=O)CCNC(=O)c2ccc(Br)cc2)cc1OC | 6.57%
65 | COc1ccc(S(=O)(=O)Cc2ccc(C(=O)N3CCN(c4cc(Cl)ccc4C)CC3)o2)cc1 | 10.6%
66 | Cc1cc(C)cc(C(=O)N(C)C2CCCN(Cc3ccccc3F)C2)c1 (centres unmarked) | 8.81%
67 | CCn1c(O)c(/C=C/C=C/C=Nc2ccccc2)sc1=S | 7.26%
68 | COc1ccc(C(=O)NCc2csc(C)n2)cc1OC1CCN(C(C)=O)CC1 | 12.7%
69 | O=C(Nc1nccs1)c1ncc(Cl)c(Cl)c1Cl | 19%

Row | SMILES | hERG current change (%, negative = inhibition) at 1uM
70 | O=C(NNC(=S)Nc1ccc(F)c(Cl)c1)c1ccccc1Br | 7.86%
71 | Cc1cc(=O)[nH]c(SCC(=O)NCCC2=CCCCC2)n1 | 15.4%
72 | COc1ccc(/C=N/NC(=O)c2ccc3c(c2)OCO3)cc1 | 18.5%
73 | COc1ccc(OC)c(S(=O)(=O)Nc2ccc(F)cc2)c1 | 4.35%
74 | CC1=C(C(=O)OC(C)C)C(c2ccc(F)cc2)NC(=O)N1 (centres unmarked) | -2.1%
75 | Cc1nc2nc(SCC(=O)N3CCC4(CC3)OCCO4)nn2c(C)c1Cc1ccccc1 | -0.97%
76 | CC(NS(=O)(=O)c1ccc2c(c1)C(=O)c1cc(S(=O)(=O)NC(C)C(=O)O)ccc1-2)C(=O)O (centres unmarked) | 15.3%
77 | O=C(Cc1cccs1)Nc1ccc(Cl)cc1 | -2.94%
78 | COc1ccc(NC(=O)COc2ccc(Br)cc2)c(OC)c1 | 8.49%
79 | Cc1ccccc1-n1c(O)cc(=O)[nH]c1=S | 1.32%
80 | CCOC(=O)CSCC(=O)Nc1c(C(=O)C2CC2)oc2ccccc12 | -10%
81 | O=S(=O)(c1ccccc1)N1CCc2ccccc21 | 8.01%
82 | CC(C)(C)N(Cc1ccccc1)C(=O)c1cc2ccccc2o1 | 10.5%
83 | O=C(CSc1ccc(Cl)cc1Cl)N1CCC(c2nc3ccccc3s2)CC1 | 13.8%
84 | CCN(CC)C(=O)CSc1nnc(CNc2ccc(F)cc2)n1-c1ccccc1 | 18.8%
85 | COC(=O)c1nn(-c2ccccc2)c(-c2ccccc2)c1C(=O)c1ccccc1 | 3.58%
86 | COc1ccc(CNC(=O)c2cc(C(C)=O)c[nH]2)cc1 | 7.89%
87 | Cc1cc(Cl)ccc1N=C1N=C(N)c2ccccc21 | 8.17%
88 | Cc1onc(-c2ccccc2)c1C(=O)Nc1nnc(-c2ccncc2)s1 | 2.16%
89 | COc1cc2c(cc1NC(=O)COC(=O)CNC(=O)c1ccccc1)oc1ccccc12 | 11.9%
